Source: PubChem BioAssay (NCATS)
The list shows a part of the results. Shown are side measurements of this screen, not its main read-out; they come without a call. Compounds called inactive in the main read-out are mostly missing here. Potencies come from curve fits of mixed quality, noted in brackets.

Assay: Cell-based coincidence reporter assay to measure PMP22 gene transcription in S16 Pmp22-F2sN cells - Confirmatory screen (AID 1508646)
Details: S16 Schwann cells Pmp22-F2sN, dual luciferase, 24 h
Method in brief: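 Coincidence reporter read as sequential FLuc then NLuc luminescence (Nano-Glo Dual-Luciferase, 10 min each). Engineered S16 Pmp22-F2sN Schwann cells, 500-1,000 per well in DMEM/10% FBS, were exposed to compounds for 24 h, 37C.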

[1] = measured here: NLuc reporter channel
[2] = measured here: FLuc reporter channel
Tags tell the direction and shape of the fitted curve.

Structure (SMILES) | AC50 [1] | AC50 [2]
CCOC(=O)N1CCN(Cc2nc3cc(NC(=O)c4ccccc4[N+](=O)[O-])ccc3n2C(C)C)CC1 | 10.9 µM [falling, full curve, poor fit] | –
Cc1noc(/C=C/c2ccco2)c1S(=O)(=O)N1CCC(C(=O)Nc2ccc(F)c(Cl)c2)CC1 | – | 6.11 µM [falling, full curve, poor fit]
CCN1CCN(c2nc3c(S(=O)(=O)c4ccc(C)cc4)nnn3c3ccsc23)CC1 | – | 43.2 µM [falling, single point]
Cc1ccccc1Cn1c(=O)n(CC2CCC(C(=O)N3CCOCC3)CC2)c(=O)c2sccc21 (centres undefined) | 17.2 µM [falling, partial curve, poor fit] | –
CCC(C)NC(=O)c1cn(CC)c2ccc(S(=O)(=O)N3CCc4ccccc4C3)cc2c1=O (centres undefined) | – | 17.2 µM [falling, partial curve, poor fit]
O=C(CSc1nc2nccnc2c(=O)n1CCc1c[nH]c2ccccc12)Nc1ccc(F)cc1 | – | 15.3 µM [falling, partial curve, poor fit]
CCOc1ccc(-c2nc(CSCC(=O)NCCc3ccccc3)c(C)o2)cc1 | – | 1.93 µM [falling, full curve]
CC1CCN(C(=O)CCS(=O)(=O)c2cc3c(cc2Cl)NC(=O)CO3)CC1 | 19.3 µM [falling, partial curve, poor fit] | –
Cc1ccc(CSc2nc3ccc(NC(=O)COc4ccccc4)cc3s2)cc1 | 15.3 µM [falling, partial curve, poor fit] | –
COc1ccccc1Nc1ncnc2scc(-c3ccc(F)cc3)c12 | – | 24.3 µM [falling, partial curve]
Cc1c(Cl)cccc1N1C(N)=C(C#N)C(c2cc(CN3CCOCC3)cs2)C2=C1CCCC2=O (centres undefined) | – | 19.3 µM [falling, partial curve]
CCc1ccc(NC(=O)CN2CCSc3ccc(S(=O)(=O)N4CCCC4)cc32)cc1 | – | 7.69 µM [falling, full curve]
COc1ccc(-c2noc(CSc3nnc(-c4ccncc4)n3-c3cccc(C)c3)n2)cc1OC | – | 4.32 µM [falling, full curve, poor fit]
Cc1cccc(-c2c3c(=O)n(C)c(=O)n(C)c3c3c(C)nc4ccccc4n23)c1 | – | 17.2 µM [falling, partial curve]
COc1ccc(NC(=O)Cn2c(=O)cc(C)c3c(C)nn(C)c32)cc1 | 6.85 µM [falling, partial curve] | –
Oc1ccc(NCc2ccccc2OCc2ccccc2F)cc1 | 24.3 µM [falling, partial curve] | –
COc1ccc(NC(=O)c2ccc3c(c2)c(C)c(C)n3Cc2ccc(F)cc2)cc1 | 13.7 µM [falling, partial curve, poor fit] | –
COc1ccc(-n2c(C)nnc2SCc2nc(-c3ccc(OC)c(OC)c3)no2)cc1 | – | 0.385 µM [falling, full curve, poor fit]
O=C(CCOc1ccccc1)N(Cc1cccnc1)c1nc2ccc(F)cc2s1 | 12.2 µM [falling, full curve, poor fit] | –
CCN(C(=O)CSc1nc(-c2ccccc2)no1)c1cccc(C)c1 | – | 24.3 µM [rising, single point]
CCOc1ccc(C(=O)Nc2ccc3nc(SCCOc4ccccc4)sc3c2)cc1 | 30.6 µM [falling, partial curve, poor fit] | –
COc1ccc(CN2CCN(Cc3cc(=O)oc4cc(C)ccc34)CC2)c(OC)c1OC | 17.2 µM [falling, partial curve, poor fit] | –
O=C(NCCSc1c[nH]c2ccccc12)c1ccccc1Cl | 15.3 µM [rising, partial curve, poor fit] | –
COCCCNC(=O)c1ccc(Cn2c(=O)c3ccccc3n(Cc3ccc(Cl)cc3)c2=O)cc1 | – | 15.3 µM [falling, partial curve, poor fit]
Cc1ccccc1OCC(=O)Nc1ccccc1C(=O)OCc1cc(=O)n2nc(C3CC3)sc2n1 | 24.3 µM [falling, partial curve, poor fit] | –
COc1ccc(-c2noc(CSc3nnc(C)n3-c3ccc(C)cc3)n2)cc1OC | – | 6.11 µM [falling, partial curve, poor fit]
COCCNc1nc2c(c(=O)n(C)c(=O)n2C)n1Cc1c(F)cccc1Cl | 19.3 µM [falling, partial curve] | –

Structure (SMILES) | AC50 [1] | AC50 [2]
Cc1c(C(=O)Nc2ccc(F)cc2)oc2ccc(S(=O)(=O)N3CCCCCC3)cc12 | – | 10.9 µM [falling, full curve, poor fit]
O=C(CCS(=O)(=O)c1cc(Br)cc2c1N(C(=O)C1CC1)CC2)N1CCN(c2cccc(C(F)(F)F)c2)CC1 | – | 30.6 µM [falling, single point]
CCC1=Nc2cc(C(=O)NCCN(CC)CC)ccc2Sc2ccccc21 | 24.3 µM [falling, partial curve] | –
COc1ccc(OC)c(CCNc2ncnc3onc(C)c23)c1 | 24.3 µM [falling, partial curve, poor fit] | –
COc1ccc(N2CCN(C(=O)c3ccc4c(c3)N(Cc3ccc(F)cc3)C(=O)c3ccccc3S4=O)CC2)cc1 (centres undefined) | 4.85 µM [falling, full curve] | –
COc1ccc(-c2cc3nc(C)c(CCC(=O)N4CCN(c5cc(C)ccc5C)CC4)c(C)n3n2)c(OC)c1 | – | 19.3 µM [falling, partial curve, poor fit]
O=C(NCc1ccccc1Cl)C1CCN(S(=O)(=O)c2ccc3c(c2)CCCN3C(=O)C2CCC2)CC1 | 38.5 µM [rising, single point] | –
Cc1ccc(NC(=O)CSc2nc3n[nH]c(C)c3c(=N)n2-c2ccccc2C)cc1C | – | 24.3 µM [falling, partial curve, poor fit]
CCc1ccc(Nc2nc3c(S(=O)(=O)c4ccc(C)cc4)nnn3c3ccsc23)cc1 | – | 43.2 µM [falling, single point]
Cn1c(-c2cccc(Br)c2)cnc1NCc1cccc(F)c1 | 24.3 µM [falling, partial curve, poor fit] | –
CCC(C)n1c(=N)c(C(=O)NC2CCCC2)cc2c(=O)n3ccccc3nc21 (centres undefined) | – | 19.3 µM [falling, partial curve, poor fit]
CCOC(=O)c1cc2c(=O)n3ccccc3nc2n(CC2CCCO2)c1=NC(=O)c1cccc(C(F)(F)F)c1 (centres undefined) | – | 1.09 µM [falling, partial curve, poor fit]
COc1ccc(NC(=O)c2oc3ccccc3c2NC(=O)Cc2ccc(F)cc2)c(OC)c1 | 10.9 µM [falling, full curve] | 10.9 µM [falling, full curve, poor fit]
COc1ccc(Br)c2c1-c1nc(NC(=O)c3cccc(C)c3)sc1C2 | 4.32 µM [falling, partial curve, poor fit] | 3.43 µM [falling, full curve]
O=S(=O)(NCCc1csc2nc(-c3ccc(Cl)cc3)nn12)c1ccc(Oc2ccccc2)cc1 | 30.6 µM [falling, single point] | 27.3 µM [falling, partial curve, poor fit]
Cc1ccc(CS(=O)(=O)c2ncc(Cl)c(C(=O)Nc3nc4ccc(F)cc4s3)n2)cc1 | 13.7 µM [falling, partial curve] | 19.3 µM [falling, partial curve]
Cc1cccc(CCn2c(=O)c3ccccc3n(CC(=O)Nc3ccccc3F)c2=O)c1 | 15.3 µM [falling, full curve, poor fit] | –
O=C1COc2ccc(-c3cc(-c4ccc(F)cc4)c4c(n3)-c3ccccc3OC4)cc2N1 | 30.6 µM [falling, partial curve, poor fit] | 24.3 µM [falling, partial curve, poor fit]
Cc1c(Cl)cccc1NC(=O)Cn1c(=O)n(Cc2ccco2)c(=O)c2sc3ccccc3c21 | 17.2 µM [falling, partial curve] | 13.7 µM [falling, full curve]
Cc1ccccc1Cn1nnc2c(=O)[nH]c(C3CCN(C(=O)c4ccc(F)cc4)CC3)nc21 | – | 21.7 µM [falling, partial curve]
COc1ccc(C2=C(C)C(=NCCCN3CCN(c4cc(C)ccc4C)CC3)NS2(=O)=O)cc1 | 27.3 µM [falling, single point] | 21.7 µM [falling, partial curve, poor fit]
COc1nnc(-c2ccc(N3CCCCC3)c(NC(=O)c3ccccc3)c2)c2ccccc12 | 43.2 µM [falling, partial curve] | 43.2 µM [falling, single point]
CCn1c(CN2CCCCC2)nc2cc(NC(=O)COc3ccccc3C(C)(C)C)ccc21 | 19.3 µM [falling, partial curve] | 17.2 µM [falling, partial curve, poor fit]
COc1ccc(OC)c(CNC(=O)c2c(C)oc3ncn(CC(C)C)c(=O)c23)c1 | 24.3 µM [falling, partial curve] | 19.3 µM [falling, partial curve]
Cc1ccccc1S(=O)(=O)Cc1ccc(C(=O)N2CCN(c3cccc(Cl)c3)CC2)o1 | 8.62 µM [falling, full curve] | 10.9 µM [falling, full curve]
CCOc1ccc(-n2ccnc2SCC(=O)Nc2nc3ccc(C)cc3s2)cc1 | 3.43 µM [falling, full curve, poor fit] | –
